From US20210228731A1, “ANTIBODY DRUG CONJUGATES FOR ABLATING HEMATOPOIETIC STEM CELLS” (NOVARTIS AG, priority 2018, published 2021)

How the values were obtained:
human cKIT ECD = target: T1, human cKIT ECD (Homo sapiens, UniProt P10721); assay: Affinity measurement of cKIT antibodies to human cKIT ECD; type: binding; settings: read-out: KD (pM) to human cKIT ECD in SET
T1 construct: residues 26-520-TAG; made in house; host or cells: HEK293 derived cell line 293FS, transient transfection

mouse cKIT = target: T2, mouse cKIT (Mus musculus, UniProt P05532); assay: Cross reactivity of cKIT antibodies to mouse cKIT; type: binding
T2 construct: 3.125-50 nM of cKIT receptor extracellular domains (ECD) were diluted in a 2-fold series; purchased Sino Biological Inc 50530-M08H
T2 sequence (P05532 25-527 limits assumed): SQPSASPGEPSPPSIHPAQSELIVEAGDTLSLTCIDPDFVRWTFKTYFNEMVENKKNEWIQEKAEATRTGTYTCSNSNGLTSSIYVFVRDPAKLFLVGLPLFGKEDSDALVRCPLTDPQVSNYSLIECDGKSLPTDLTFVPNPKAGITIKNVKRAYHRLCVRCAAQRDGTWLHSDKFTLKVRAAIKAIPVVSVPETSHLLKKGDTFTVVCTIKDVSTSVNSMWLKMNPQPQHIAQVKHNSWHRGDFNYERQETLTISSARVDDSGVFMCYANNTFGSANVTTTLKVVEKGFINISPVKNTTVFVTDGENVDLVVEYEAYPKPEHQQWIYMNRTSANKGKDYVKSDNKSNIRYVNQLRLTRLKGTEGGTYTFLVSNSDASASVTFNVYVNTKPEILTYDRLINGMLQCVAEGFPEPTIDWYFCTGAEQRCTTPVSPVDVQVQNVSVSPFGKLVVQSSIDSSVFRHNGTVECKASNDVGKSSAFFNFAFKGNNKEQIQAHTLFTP

rat cKIT = assay: Cross reactivity of cKIT antibodies to rat cKIT; type: binding
[1] = tested on: human peripheral blood HSC-derived mast cells; assay: In vitro human mast cell degranulation assay (beta-hexosaminidase release); type: cell-based; settings: test agents 0.006-25 nM cross-linked with antibody specific for the Fab portion; absence of SCF
Procedure: Mature mast cells were generated using CD34+ progenitors from mobilized peripheral blood. CD34+ cells were cultured in StemSpan SFEM (StemCell Technologies) supplemented with recombinant human stem cell factor (rhSCF, 50 ng/ml, Gibco), recombinant human interleukin 6 (rhIL-6, 50 ng/ml, Gibco), recombinant human IL-3 (30 ng/ml, Peprotech), GlutaMAX ([…], Gibco), penicillin (100 U/ml, Hyclone) and streptomycin (100 μg/ml, Hyclone). Recombinant hll-3 was added only during the first week of the culture. After the third week, half of the medium was replaced weekly with fresh medium containing rhIL-6 (50 ng/ml) and rhSCF (50 ng/ml). Mature mast cell purity was evaluated by surface staining of high-affinity IgE receptor (FCεRI, eBioscience) and CD117 (BD). Cells were used between week 8 and 12 of the culture.
The derived mast cells were washed once to remove SCF, and the required amount of cells was incubated overnight in mast cell medium containing rhIL-6 (50 ng/ml) with or without rhSCF (50 ng/ml). As positive control for mast cell degranulation, a portion of the cells were sensitized with human myeloma IgE (100 ng/ml, EMD Millipore). The following day, anti-cKIT antibody or antibody fragments or toxin conjugates thereof, mouse monoclonal anti-human IgG1 (Fab specific, Sigma), goat anti-human IgE (Abcam) and compound 48/80 (Sigma) dilutions were prepared in HEPES degranulation buffer (10 mM HEPES, 137 mM NaCl, 2.7 mM KCl, 0.4 mM sodium phosphate dibasic, 5.6 mM glucose, pH adjusted at 7.4 and mixed with 1.8 mM calcium chloride and 1.3 mM magnesium sulfate) supplemented with 0.04% bovine serum albumin (BSA, Sigma). Test agents and anti-IgG1 were mixed together in a V-bottom 384-well assay plate while anti-IgE and compound 48/80 were tested alone. The assay plate was incubated 30 min at 37° C. During the incubation, cells were washed 3 times with HEPES degranulation buffer+0.04% BSA to remove medium and unbound IgE. Cells were resuspended in HEPES degranulation buffer+0.04% BSA and seeded at 3000 cells per well in the assay plate for a final reaction volume of 50 μl. Cells that were sensitized with IgE were used only with anti-IgE as a positive control for degranulation. The assay plate was incubated 30 min at 37° C. for degranulation to occur. During this incubation, p-nitro-N-acetyl-pi-D-gluosamine (pNAG, Sigma) buffer was prepared by sonicating 3.5 mg/ml of pNAG in citrate buffer (40 mM citric acid, 20 mM sodium phosphate dibasic, pH 4.5). β-hexosaminidase release was measured by mixing 20 μl of cell supernatant with 40 μl of pNAG solution in a flat-bottom 384-well plate. This plate was incubated for 1.5 hour at 3700, and the reaction was stopped by the addition of 40 μl of stop solution (400 mM glycine, pH 10.7). Absorbance was read using a plate reader at λ=405 nm with reference filter at λ=620 nm.
Mature mast cells were generated and tested with anti-cKIT antibody and F(ab′)2 and Fab fragments as described in Example 6.

T1 sequence (P10721 with tags, fused parts or gaps isoform P10721-2): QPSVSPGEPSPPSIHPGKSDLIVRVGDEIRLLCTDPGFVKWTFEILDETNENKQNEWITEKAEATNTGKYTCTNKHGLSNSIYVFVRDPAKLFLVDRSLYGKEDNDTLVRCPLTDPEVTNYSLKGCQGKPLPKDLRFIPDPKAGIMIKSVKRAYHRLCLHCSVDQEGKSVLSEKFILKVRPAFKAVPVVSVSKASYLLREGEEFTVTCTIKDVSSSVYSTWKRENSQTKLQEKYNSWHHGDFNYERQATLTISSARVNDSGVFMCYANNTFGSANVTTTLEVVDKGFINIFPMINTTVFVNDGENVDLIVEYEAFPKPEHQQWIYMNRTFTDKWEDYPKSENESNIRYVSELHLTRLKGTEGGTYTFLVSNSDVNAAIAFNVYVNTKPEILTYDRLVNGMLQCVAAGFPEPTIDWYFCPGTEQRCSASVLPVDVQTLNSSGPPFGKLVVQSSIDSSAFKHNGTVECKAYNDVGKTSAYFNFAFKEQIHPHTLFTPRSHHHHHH

| Molecule | Kd (human cKIT ECD) [pM] | Reactivity to mouse cKIT (mouse cKIT) | Reactivity to rat cKIT (rat cKIT) | mast cell degranulation (beta-hexosaminidase release) when cross-linked [1] |
| --- | --- | --- | --- | --- |
| Anti-cKIT Ab3: full length anti-cKIT antibody, heavy chain SEQ ID NO: 56, light chain SEQ ID NO: 25 (antibody) heavy: QVQLVQSGAEVKKPGSSVKVSCKASGGTFSSYAISWVRQAPGQGLEWMGTIGPFEGQPRYAQKFQGRVTITADESTSTAYMELSSLRSEDTAVYYCARGGYISDFDVWGQGTLVTVSSASTKGPSVFPLAPSSKSTSGGTAALGCLVKDYFPEPVTVSWNSGALTSGVHTFPAVLQSSGLYSLSSVVTVPSSSLGTQTYICNVNHKPSNTKVDKRV[human IgG1 Fc left out] light: DIQMTQSPSSLSASVGDRVTITCRASQSISNYLAWYQQKPGKAPKLLIYDASSLQSGVPSRFSGSGSGTDFTLTISSLQPEDFATYYCQQYYYESITFGQGTKVEIKRTVAAPSVFIFPPSDEQLKSGTASVVCLLNNFYPREAKVQWKVDNALQSGNSQESVTEQDSKDSTYSLSSTLTLSKADYEKHKVYACEVTHQGLSSPVTKSFNRGEC | 160 | Not | Not | caused mast cell degranulation when cross-linked |
| Anti-cKIT Ab2: full length anti-cKIT antibody, heavy chain SEQ ID NO: 38, light chain SEQ ID NO: 49 (antibody) heavy: QVQLVQSGAEVKKPGSSVKVSCKASGGTFSSHALSWVRQAPGQGLEWMGGIIPSFGTADYAQKFQGRVTITADESTSTAYMELSSLRSEDTAVYYCARGLYDFDYWGQGTLVTVSSASTKGPSVFPLAPSSKSTSGGTAALGCLVKDYFPEPVTVSWNSGALTSGVHTFPAVLQSSGLYSLSSVVTVPSSSLGTQTYICNVNHKPSNTKVDKRV[human IgG1 Fc left out] light: DIQMTQSPSSLSASVGDRVTITCRASQDISQDLAWYQQKPGKAPKLLIYDASSLQSGVPSRFSGSGSGTDFTLTISSLQPEDFAVYYCQQYYYLPSTFGQGTKVEIKRTVAAPSVFIFPPSDEQLKSGTASVVCLLNNFYPREAKVQWKVDNALQSGNSQESVTEQDSKDSTYSLSSTLTLSKADYEKHKVYACEVTHQGLSSPVTKSFNRGEC |  | Not | Not | caused mast cell degranulation when cross-linked |
